Results as given in paper PMC4336329 (PLoS ONE, 2015).
Hit rate of the full screen: of about 310,000 compounds, about 14,000 (4.5%) showed an effect of 50% or more. Effects have a minus sign here. The list shows a part of the results.

These compounds were tested against human ether-à-go-go-related gene (hERG) potassium channel (human, UniProt Q12809) (assay: primary screen, population patch clamp on CHO cells stably expressing hERG).
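Further: peak tail current of the secondary pulse compared with the same well before compound.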

Sequence of human ether-à-go-go-related gene (hERG) potassium channel (Q12809 whole entry, looked up): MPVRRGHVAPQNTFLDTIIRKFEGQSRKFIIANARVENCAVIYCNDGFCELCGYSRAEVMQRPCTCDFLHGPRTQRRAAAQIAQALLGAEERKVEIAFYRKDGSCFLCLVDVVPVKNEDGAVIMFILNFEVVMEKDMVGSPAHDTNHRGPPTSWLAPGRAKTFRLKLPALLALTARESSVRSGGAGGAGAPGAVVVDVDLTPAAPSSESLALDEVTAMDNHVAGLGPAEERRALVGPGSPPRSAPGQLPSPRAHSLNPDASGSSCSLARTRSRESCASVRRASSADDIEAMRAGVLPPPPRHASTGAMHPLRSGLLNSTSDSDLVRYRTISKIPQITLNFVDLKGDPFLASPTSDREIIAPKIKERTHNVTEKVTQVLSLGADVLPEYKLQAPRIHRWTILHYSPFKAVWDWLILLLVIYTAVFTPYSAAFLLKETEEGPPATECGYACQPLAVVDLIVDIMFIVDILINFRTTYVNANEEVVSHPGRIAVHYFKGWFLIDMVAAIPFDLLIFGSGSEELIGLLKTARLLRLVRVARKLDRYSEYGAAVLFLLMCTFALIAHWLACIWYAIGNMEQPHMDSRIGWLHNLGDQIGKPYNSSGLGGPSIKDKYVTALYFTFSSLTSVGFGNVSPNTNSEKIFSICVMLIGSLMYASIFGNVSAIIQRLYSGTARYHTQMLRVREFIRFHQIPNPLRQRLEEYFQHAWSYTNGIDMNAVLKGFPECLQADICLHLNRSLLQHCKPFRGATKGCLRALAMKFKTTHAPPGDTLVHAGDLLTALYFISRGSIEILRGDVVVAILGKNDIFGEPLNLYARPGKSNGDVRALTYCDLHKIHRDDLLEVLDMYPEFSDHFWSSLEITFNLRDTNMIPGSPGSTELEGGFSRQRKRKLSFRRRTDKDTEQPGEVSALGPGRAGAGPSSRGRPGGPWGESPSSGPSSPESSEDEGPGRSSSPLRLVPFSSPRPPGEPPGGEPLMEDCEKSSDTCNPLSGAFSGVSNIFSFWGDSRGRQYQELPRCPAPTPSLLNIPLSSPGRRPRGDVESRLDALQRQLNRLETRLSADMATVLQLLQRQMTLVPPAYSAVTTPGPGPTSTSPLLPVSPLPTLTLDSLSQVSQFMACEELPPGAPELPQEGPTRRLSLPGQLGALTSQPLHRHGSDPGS

**Q.** Which “hERG current change (%, negative = inhibition) at 10uM” value does the source give for `COc1ccccc1NC(=O)N1CCOCC1` here?
**A.** Its value is 21.9%.

**Q.** How did the “hERG current change (%, negative = inhibition) at 10uM” value turn out when `Cc1c2c(nc3c(C(=O)NC4CCCC4)cnn13)CCCC2` was run?
**A.** The value was -10.9%.

**Q.** Which “hERG current change (%, negative = inhibition) at 10uM” value does the source give for `Cc1ccc(-n2ncc3c2CCCC3NC(=O)CSc2ccccn2)cc1C` (centres unmarked) here?
**A.** The value was -17.2%.

**Q.** How did the “hERG current change (%, negative = inhibition) at 10uM” value turn out when `S=C1NC2(CCCCC2)Nc2ccccc21` was run?
**A.** Its value is 9.43%.

**Q.** How did the “hERG current change (%, negative = inhibition) at 10uM” value turn out when `Cc1nnc(SCCn2c(N3CC(C)CC(C)C3)nc3c2c(=O)[nH]c(=O)n3C)s1` (centres unmarked) was run?
**A.** The value was -0.528%.

**Q.** How did the “hERG current change (%, negative = inhibition) at 10uM” value turn out when `COc1ccc(N2CCN(CCCNC(=O)C3CCN(S(=O)(=O)N4CCOCC4)CC3)CC2)cc1` was run?
**A.** Its value is -27.2%.

**Q.** For `COc1ccc(C2=Nc3ccc(C)cc3C(c3ccccc3)N2CC(=O)NN)cc1` (centres unmarked), which “hERG current change (%, negative = inhibition) at 10uM” value is on record?
**A.** Its value is -23.2%.

**Q.** How did the “hERG current change (%, negative = inhibition) at 10uM” value turn out when `C/C(=N\NC(=O)c1ccc(O)cc1)c1ccc2c(c1)OCCO2` was run?
**A.** The value was 3.5%.

**Q.** With `CC(Cc1ccccc1)NC=O` (centres unmarked) as the compound, how does the “hERG current change (%, negative = inhibition) at 10uM” value read?
**A.** The value was 12.3%.

**Q.** For `Cc1ccc(OCC(=O)NCc2ccc3c(c2)OCO3)c([N+](=O)[O-])n1`, which “hERG current change (%, negative = inhibition) at 10uM” value is on record?
**A.** The value was -32.4%.

**Q.** `O=C(Nc1ccc(-c2cnco2)cc1)c1ccc(F)cc1F` was tested. Which “hERG current change (%, negative = inhibition) at 10uM” value did it give?
**A.** The value was 19.4%.

**Q.** Which “hERG current change (%, negative = inhibition) at 10uM” value does the source give for `Cc1c(NC(=O)CSc2nnc(COc3ccccc3)n2-c2ccccc2)c(=O)n(-c2ccccc2)n1C` here?
**A.** The value was 4.48%.

**Q.** How did the “hERG current change (%, negative = inhibition) at 10uM” value turn out when `Cc1ccc(C(=O)N(c2c(C)n(C)n(-c3ccccc3)c2=O)C(C)C)cc1` was run?
**A.** Its value is -0.41%.

**Q.** How did the “hERG current change (%, negative = inhibition) at 10uM” value turn out when `COc1ccc(OC)c(NC(=O)CSc2nncc(=O)n2N)c1` was run?
**A.** Its value is 13.4%.

**Q.** With `O=C(CCC1CCCC1)NNC(=O)c1ccccc1O` as the compound, how does the “hERG current change (%, negative = inhibition) at 10uM” value read?
**A.** The value was -14.2%.

**Q.** For `COc1cccc(NC(=O)CN2C(=O)COc3ccc(C)cc32)c1`, which “hERG current change (%, negative = inhibition) at 10uM” value is on record?
**A.** The value was 8.5%.

**Q.** Which “hERG current change (%, negative = inhibition) at 10uM” value does the source give for `Nc1ccc(C(=O)N/N=C/c2cn(Cc3cccc(F)c3)c3ccccc23)cc1` here?
**A.** Its value is 16%.

**Q.** How did the “hERG current change (%, negative = inhibition) at 10uM” value turn out when `O=C(COC(=O)c1ccc(O)cc1)Nc1cc(C(F)(F)F)ccc1Cl` was run?
**A.** Its value is -0.624%.

**Q.** `Cc1ccc(CSc2nc3ccccc3c(=O)n2CCCC(=O)NCc2ccco2)cc1` was tested. Which “hERG current change (%, negative = inhibition) at 10uM” value did it give?
**A.** The value was -2.71%.

**Q.** How did the “hERG current change (%, negative = inhibition) at 10uM” value turn out when `CCOC(=O)C1(CCOc2ccccc2)CCN(CC2CC2)CC1` was run?
**A.** The value was -47.4%.

**Q.** For `CC(Cc1ccccc1Sc1ccccc1O)N(C)C.Cl` (centres unmarked), which “hERG current change (%, negative = inhibition) at 10uM” value is on record?
**A.** The value was -18.9%.

**Q.** For `Cc1ccc(C(C)C)c(OCC(=O)NNC(=O)Cn2[nH]c(=O)c3ccccc3c2=O)c1`, which “hERG current change (%, negative = inhibition) at 10uM” value is on record?
**A.** The value was 3.84%.

**Q.** How did the “hERG current change (%, negative = inhibition) at 10uM” value turn out when `O=C(c1cc(-c2ccc(Cl)c(Cl)c2)on1)N1CCN(c2ccccc2)CC1` was run?
**A.** The value was 9.74%.

**Q.** How did the “hERG current change (%, negative = inhibition) at 10uM” value turn out when `CC1CN=C(Nc2ccccc2)S1` (centres unmarked) was run?
**A.** Its value is 7.23%.

**Q.** `COc1ccc(N2CCN(C(=O)c3ccc(CS(=O)Cc4ccc(Cl)cc4)o3)CC2)cc1` (centres unmarked) was tested. Which “hERG current change (%, negative = inhibition) at 10uM” value did it give?
**A.** Its value is -50.1%.

**Q.** `COc1cc(C(=O)Nc2ccc3c(c2)Cc2ccccc2-3)cc(OC)c1OC` was tested. Which “hERG current change (%, negative = inhibition) at 10uM” value did it give?
**A.** Its value is 0.538%.

**Q.** How did the “hERG current change (%, negative = inhibition) at 10uM” value turn out when `O=C(Nc1ccc(Cl)c(S(=O)(=O)N2CCOCC2)c1)C1CCC1` was run?
**A.** Its value is -10.4%.

**Q.** For `Nc1nc(NCCCN2CCOCC2)nc(Nc2ccccc2)c1[N+](=O)[O-]`, which “hERG current change (%, negative = inhibition) at 10uM” value is on record?
**A.** Its value is -36.5%.

**Q.** With `CCn1c(/N=C/c2ccc(OC)cc2O)nc2ccccc21` as the compound, how does the “hERG current change (%, negative = inhibition) at 10uM” value read?
**A.** Its value is 10.4%.

**Q.** How did the “hERG current change (%, negative = inhibition) at 10uM” value turn out when `O=C(CCC1CCCN(C(=O)Cn2cnnn2)C1)NCc1ccccc1F` (centres unmarked) was run?
**A.** Its value is 20.1%.

**Q.** How did the “hERG current change (%, negative = inhibition) at 10uM” value turn out when `O=C(O)c1ccccc1N/N=C/c1c(Sc2nnnn2-c2ccccc2)nc2ccccn2c1=O` was run?
**A.** The value was -21.4%.

**Q.** How did the “hERG current change (%, negative = inhibition) at 10uM” value turn out when `O=C(COC(=O)CCC1CCCC1)Nc1ccc(Cl)cc1F` was run?
**A.** The value was -9.62%.

**Q.** How did the “hERG current change (%, negative = inhibition) at 10uM” value turn out when `O=C(c1ccc2c(c1)OCO2)N1CCc2ccccc2C1` was run?
**A.** The value was 3.39%.

**Q.** Which “hERG current change (%, negative = inhibition) at 10uM” value does the source give for `CCSc1nc2sc3c(c2c(=O)[nH]1)CCCC3` here?
**A.** Its value is 12.8%.

**Q.** For `CCN(CC)CCOc1c(C)cccc1Cl`, which “hERG current change (%, negative = inhibition) at 10uM” value is on record?
**A.** Its value is -47.2%.

**Q.** `Cc1ccc(NC(=O)CSCc2c(C)noc2C)cc1C` was tested. Which “hERG current change (%, negative = inhibition) at 10uM” value did it give?
**A.** The value was 2.55%.

**Q.** `Cc1ccc(C(=O)Nc2ccon2)cc1S(=O)(=O)N1CCCCCC1` was tested. Which “hERG current change (%, negative = inhibition) at 10uM” value did it give?
**A.** The value was -29.7%.

**Q.** Which “hERG current change (%, negative = inhibition) at 10uM” value does the source give for `CC(C)(C)NS(=O)(=O)c1ccc(NS(=O)(=O)Cc2ccccc2)cc1` here?
**A.** The value was 6.65%.

**Q.** With `COc1ccccc1CNC(=O)C1CC2Cn3c(nc4ccccc43)C2N1C` (centres unmarked) as the compound, how does the “hERG current change (%, negative = inhibition) at 10uM” value read?
**A.** The value was -9.34%.

**Q.** `Cc1ccc(S(=O)(=O)N2CCN(C(=O)[C@H](Cc3ccccc3)NC(=O)c3ccco3)CC2)cc1C` was tested. Which “hERG current change (%, negative = inhibition) at 10uM” value did it give?
**A.** The value was -0.776%.

**Q.** How did the “hERG current change (%, negative = inhibition) at 10uM” value turn out when `CC(C)C(NC(=O)c1ccc(C(C)(C)C)cc1)C(=O)Nc1ccc(N2CCOCC2)cc1` (centres unmarked) was run?
**A.** The value was -20.4%.

**Q.** For `Oc1ccc2oc3c(c2c1)CCCC3`, which “hERG current change (%, negative = inhibition) at 10uM” value is on record?
**A.** Its value is 1.39%.

**Q.** Which “hERG current change (%, negative = inhibition) at 10uM” value does the source give for `O=C(OC(C(=O)Nc1cccc(C(F)(F)F)c1)c1ccccc1)C1CCCCC1` (centres unmarked) here?
**A.** The value was 17.1%.

**Q.** Which “hERG current change (%, negative = inhibition) at 10uM” value does the source give for `O=C(CNC(=O)C1CCCCC1)NCc1ccco1` here?
**A.** Its value is 11.9%.

**Q.** Which “hERG current change (%, negative = inhibition) at 10uM” value does the source give for `O=C(c1ccncc1)N1CCN(S(=O)(=O)c2cccc([N+](=O)[O-])c2)CC1` here?
**A.** Its value is -11.7%.

**Q.** Which “hERG current change (%, negative = inhibition) at 10uM” value does the source give for `CCC(=NCc1cc(OC)cc(OC)c1)c1c(O)[nH]c(=O)[nH]c1=O` here?
**A.** The value was -7.6%.

**Q.** How did the “hERG current change (%, negative = inhibition) at 10uM” value turn out when `O=C(COC(=O)c1ccc([N+](=O)[O-])cc1)NC1CCCC1` was run?
**A.** Its value is 3.77%.

**Q.** How did the “hERG current change (%, negative = inhibition) at 10uM” value turn out when `O=C(NCC1CCN(C(=O)c2ccc([N+](=O)[O-])cc2)CC1)C(=O)Nc1ccccc1` was run?
**A.** Its value is -36.8%.

**Q.** For `Cl.OC1(CNCc2ccccc2)C2CC3CC(C2)CC1C3` (centres unmarked), which “hERG current change (%, negative = inhibition) at 10uM” value is on record?
**A.** Its value is 10.4%.

**Q.** With `CCOc1ccc(/C=N/Nc2nncc(-c3ccccc3)n2)cc1OC` as the compound, how does the “hERG current change (%, negative = inhibition) at 10uM” value read?
**A.** Its value is -24.4%.

**Q.** With `Cc1onc(-c2ccccc2)c1C(=O)Nc1ccc(-c2nnc3n2CCCCC3)cc1` as the compound, how does the “hERG current change (%, negative = inhibition) at 10uM” value read?
**A.** The value was 5.54%.

**Q.** How did the “hERG current change (%, negative = inhibition) at 10uM” value turn out when `CC(C(=O)Nc1ccccc1-c1ccccc1)N1CCN(Cc2ccccc2)CC1` (centres unmarked) was run?
**A.** The value was -72.2%.

**Q.** How did the “hERG current change (%, negative = inhibition) at 10uM” value turn out when `CC(=O)N(Cc1cc2c(C)cc(C)cc2[nH]c1=O)C1CCCCC1` was run?
**A.** Its value is 8.13%.

**Q.** With `CC(=O)Nc1ccc(S(=O)(=O)Nc2nc3ccccc3nc2-n2ccc(=NC(=O)c3ccc(F)cc3)cc2)cc1` as the compound, how does the “hERG current change (%, negative = inhibition) at 10uM” value read?
**A.** Its value is -8.39%.

**Q.** For `O=C(C[n+]1cc(-c2ccc(Cl)c(Cl)c2)n2c1CCC2)OCc1ccccc1.[Br-]`, which “hERG current change (%, negative = inhibition) at 10uM” value is on record?
**A.** The value was -37.6%.

**Q.** Which “hERG current change (%, negative = inhibition) at 10uM” value does the source give for `Cn1c(N)c(C(=O)COC(=O)C2(c3ccc(Cl)cc3)CCCC2)c(=O)n(C)c1=O` here?
**A.** The value was 10.4%.
